From PubChem BioAssay AID624171 (National Center for Advancing Translational Sciences (NCATS), 2012)
Screen size: about 410,000 compounds; about 1,200 (0.29%) were called active. The shares of active, inactive and inconclusive entries below differ from those in the screen. Calls follow the shape of the dose curve; as a rule, active = well fitted activation curve with a large enough effect; inconclusive = small, poorly fitted or top-dose-only effect; inactive = flat fitted curve, though single readings scatter. Potencies beside an inconclusive call are fits to weak or partial responses and may not hold up.

Assay: qHTS of Nrf2 Activators; also: nearly all actives have a fitted effect of over 65% in size
Settings: AREc32 ARE-luciferase reporter (MCF7-derived line), luminescence, 24 h; series mostly up to 46.1 µM
How it was run: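 Cells of the AREc32 ARE-luciferase line are plated in OPTI-MEM containing 5% FBS and left overnight at 37 deg C. Compounds are pinned in, incubation continues 24 hr, and firefly luciferase signal is then measured.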
Potency is read from the fitted curve at half-maximal effect; tags tell the direction and shape of the fitted curve.

Potency, inconclusive:
O=C(Nc1nccs1)c1ccc2ccccc2n1 2.82 µM [activator, partial curve, poor fit]
CCCCNc1nc(Oc2ccc(OCC)nn2)nc(N2CCOCC2)n1 22.4 µM [activator, partial curve, poor fit]
Cc1ccc(C(=O)/C=C/C(=O)c2ccc(C)cc2)cc1 11.2 µM [activator, partial curve]
c1ccc2oc(SCc3nc4ccccc4s3)nc2c1 12.6 µM [activator, partial curve, poor fit]
CC(C(=O)NCCc1ccccc1)N1c2cccc3cccc(c23)S1(=O)=O (centres undefined) 11.2 µM [activator, partial curve, poor fit]
CCN(C(=O)COC(=O)c1ccc([N+](=O)[O-])o1)c1cccc2ccccc12 17.8 µM [activator, partial curve, poor fit]
Fc1ccc(C(Nc2ccccn2)c2c[nH]c3ccccc23)cc1 (centres undefined) 35.5 µM [activator, single point]
Cc1nc(-c2ccccc2)cc(N2CCCC2)n1 11.2 µM [activator, single point]
N#Cc1c(NC(=O)c2ccco2)sc2c1CCC2 12.6 µM [activator, partial curve, poor fit]
Cn1c(C=O)c(C#Cc2ccccc2)c2ccccc21 3.16 µM [activator, partial curve, poor fit]
CC(=O)Nc1ccc(OC(=O)c2ccc(Br)c([N+](=O)[O-])c2)cc1 22.4 µM [activator, single point]
Cc1ccc(-n2nc(C)c(NC(=O)CCl)c2C)cc1 17.8 µM [activator, partial curve, poor fit]
CN(C)CC(C(=O)c1ccccc1)c1ccccc1 (centres undefined) 1.78 µM [activator, partial curve, poor fit]
Cn1nnnc1Sc1ncnc2scc(-c3ccc(F)cc3)c12 3.16 µM [activator, partial curve, poor fit]
O=C(O)/C=C/c1ccc([N+](=O)[O-])o1 17.8 µM [activator, single point]
CC(C)c1nnc(NC(=O)CCS(=O)(=O)c2ccccc2)s1 22.4 µM [activator, single point]
O=C(CSc1ncnc2c1nnn2Cc1ccccc1F)NCC1CCCO1 (centres undefined) 28.2 µM [activator, single point]
O=C(CCN1CCOCC1)c1ccc(Br)cc1 31.6 µM [activator, single point]
Cc1[nH]c(C)c(C(=O)/C=C/c2ccc([N+](=O)[O-])cc2)c1C 3.98 µM [activator, single point]
CN(C)c1ccc(C(=O)/C=C/c2ccccc2)cc1 22.4 µM [activator, single point]
COC(=O)c1cccc(-n2c(CCC(=O)O)ccc2-c2ccc(OC)cc2)c1 28.2 µM [activator, single point]
O=C(O)CCCCCN1C(=O)/C(=C\c2ccncc2)SC1=S 2.24 µM [activator, full curve, poor fit]
O=C(CCl)c1cc2c3c(c1)CC(=O)N3CCC2 25.1 µM [activator, single point]
O/C(=C\c1ccc2ccccc2n1)c1ccncc1 12.6 µM [activator, partial curve]
N#C/C(=C(/O)COC(=O)CSc1ccc(Cl)cc1)c1nc2ccccc2[nH]1 25.1 µM [activator, single point]
CC1=CN2C(=N)/C(=C/c3ccc(Sc4ccc(Cl)cc4)o3)C(=O)N=C2S1 31.6 µM [activator, single point]
CC(NC(=O)/C=C/c1ccco1)c1nc2ccccc2n1Cc1ccccc1F (centres undefined) 12.6 µM [activator, single point]
O=C(CCNc1cccc(F)c1)c1cc2ccccc2o1 31.6 µM [activator, single point]
CCOC(=O)c1cc(-c2cccc(C(F)(F)F)c2)nc2nc(SC)[nH]c(=O)c12 12.6 µM [activator, partial curve]
CCc1nc(Nc2ccccc2F)c2oc3ccccc3c2n1 0.562 µM [activator, full curve, poor fit]
CCOC(=O)c1csc(Nc2nc3ccc(F)cc3s2)n1 12.6 µM [activator, single point]
COc1cc(/C=C(\C#N)C(=O)NC2CCCCC2C)ccc1OS(=O)(=O)c1ccc(C)cc1 (centres undefined) 20 µM [activator, single point]
O=C(CSc1nc2ccccc2[nH]1)N/N=C/C=C\c1ccccc1[N+](=O)[O-] 12.6 µM [activator, partial curve, poor fit]
O=C(Nc1cccc(NC(=O)c2cc([N+](=O)[O-])ccc2Cl)n1)c1cc([N+](=O)[O-])ccc1Cl 5.62 µM [activator, single point]
O=C(Nc1nnc(-c2cccs2)o1)c1cccc(C(F)(F)F)c1 2.51 µM [activator, partial curve, poor fit]
CCn1c(/C=C2\C(=O)N(C(C)C)c3ccccc32)nc2ccccc2c1=O 8.91 µM [activator, partial curve]
COc1cc(N=Nc2cccc(S(N)(=O)=O)c2)c2ccccc2c1N 10 µM [activator, partial curve]
COc1ccc2nc(-n3c(O)c(C4=c5ccccc5=NC4=O)[nH]c3=S)sc2c1 17.8 µM [activator, single point]
Cc1ccc(/C=C/C(=O)Nc2nccs2)o1 12.6 µM [activator, partial curve, poor fit]
COC(=O)c1cc2sc(Cl)cc2n1CC(=O)N1CCCc2ccccc21 12.6 µM [activator, partial curve]
O=C(OCC(=O)N1CCCC1=O)c1nc(Cl)c(Cl)c(Cl)c1Cl 20 µM [activator, partial curve, poor fit]
Cc1ccc(S(=O)(=O)/N=C(/NNC(=O)c2cccc(Cl)c2)c2ccccc2)cc1 3.16 µM [activator, full curve, poor fit]
O=C(Nc1ccccc1[N+](=O)[O-])C1COc2ccccc2O1 (centres undefined) 2.82 µM [activator, full curve, poor fit]
O=C(CCN1Cc2ccccc2C1)c1ccc2c(c1)OCCO2 17.8 µM [activator, single point]
Cc1ccc2c(c1)/C(=C/c1ccco1)C(=O)N2 8.91 µM [activator, partial curve, poor fit]

Potency, inactive:
CCOC(=O)c1ccc(NC(=O)c2c(-c3c(F)cccc3Cl)noc2C)cc1
COc1cc(C(CC(=O)NCc2ccc(F)cc2)N2Cc3ccccc3C2=O)cc(OC)c1OC (centres undefined)
COc1cccc(CSc2nc3ccccc3c3nc(CCn4c(C)nc5ccccc54)nn23)c1
O=C(Nc1ccccc1C(=O)NC(Cc1ccc(O)cc1)C(=O)O)c1ccccc1 (centres undefined)
COc1ccc(-c2nn3c(=O)cc(CN4CCN(C(=O)c5ccc(C(C)(C)C)cc5)CC4)nc3s2)cc1
O=C(NCc1ccc(Cl)cc1)c1cnc(N2CCCCC2)c2ccccc12
CN(C)c1ccc(C(CNS(=O)(=O)c2ccccc2)N2CCc3ccccc32)cc1 (centres undefined)
Cn1c(SCc2ccc(C(F)(F)F)cc2)nc2c([nH]c3ccccc32)c1=O
Cc1ccc2c(C)c(C(=O)N(Cc3ccc(Cl)cc3)C3CCS(=O)(=O)C3)oc2c1 (centres undefined)
COc1cc2c(cc1NC(=O)CSc1nnc(Cc3cccs3)n1Cc1ccco1)oc1ccccc12
O=C(Nc1nnc(-c2ccncc2)o1)c1ccc2ccccc2c1
CN(C)c1ccc(Nc2nc(-c3cccnc3)cs2)cc1
Cc1cc(C(F)(F)F)c2c(C)nn(CCc3nn[nH]n3)c2n1
Cc1ccc(NC(=O)C2CCCN(S(=O)(=O)c3cccc4nsnc34)C2)c(C)c1 (centres undefined)
CCCCCC(=O)N/N=C/c1ccc(N(C)C)cc1
S=c1[nH]nc(-c2cc(-c3ccccc3)n[nH]2)n1/N=C/C=C/c1ccccc1
COc1cc(C(=O)NC2CCN(C)CC2)ccc1Nc1ncc2c(n1)N(C1CCCC1)CCC(=O)N2C(C)C
CC(=O)c1c(N2CCCCC2)nc(=S)n(Cc2ccccc2)c1C
Cc1ccc(COC(=O)c2[nH]c3c(c2C)C(=O)CC(c2ccc(Cl)cc2)C3)cc1 (centres undefined)
Nn1c(CSc2ccccn2)nc2ccccc2c1=O
CCCN(CCC)C(=O)C1CCN(c2cc(C)nc3c(-c4ccc(Cl)cc4)c(C)nn23)CC1
O=C(Cn1cc(S(=O)(=O)Cc2ccccc2F)c2ccccc21)Nc1ccc(F)c(Cl)c1

Potency, active:
Cc1nc2nc(-c3ccco3)[nH]n2c(=O)c1C 11.2 µM
CC(=O)Oc1ccccc1/C=C/c1ccc2ccccc2[n+]1C 11.2 µM
